The other results are listed elsewhere or left out.

Sequences and labels used below:
B1: chr1:109605286:109605287:-_ENSG00000197780_ENST00000461096|hu_mus|hu_hu_hu_mus_True|1_58 (ssRNA)
RNA: GGGAGUUCUACAGUCCGACGAUCAAGUUUCAGAGUAACAUUCAGUAACCUCUUUAAAUGCAAUUAUCCUUAUUAUAAACUAAGGGCAAUAAUAAUUUAAUACCGUAAGUGAACUACACACAAAGCCUGAACCGCGAAACUACACAACAGAGGAUUGAGCAUCA
B2: 129742970_129743738_2615_CDS_ENSG00000170322_ENST00000446488|human|control|control (ssRNA)
RNA: GGGAGUUCUACAGUCCGACGAUCGGGCACAGUGGCCAUUACUGUCUGGGGCACUACUUUGGUCUGUGUGGCAGUGGCUGGAACCCGGAUCUGCGGUCCUGCUGGCAUCUGUGGCAAUGUCUGUGCCGGCCCUCCCGACUGCUGCAACAGAGGAUUGAGCAUCA
B3: 58477262_58477382_1138_ncRNA_ENSMUSG00000026034_ENSMUST00000129577|mouse|control|control (ssRNA)
RNA: GGGAGUUCUACAGUCCGACGAUCCAAGGAACAGAUUUUCAGAUAAGAUACUCAAAGUGGUAAGUCAACAAAACAUAAACACAUUUGCUUUUCUUCUUAAAAAACAAAACAAAACUUAUCUGUGGCAUUCACUCAAACAUAGUGCAACAGAGGAUUGAGCAUCA
B4: 26880008_26881670_611_3pUTR_ENSMUSG00000037316_ENSMUST00000038498|mouse|control|control (ssRNA)
RNA: GGGAGUUCUACAGUCCGACGAUCCUGUGAAGCAGGAUAUCCUGGCACCUGUCCCCUCAGAGGAGGUGCUUCUGUUGGACAGUCCUGCUGGGAAUACAUCCAACGAGACAUUGGAGUUGGGCUGUUACCAGGUGAACGGUAGGUCAACAGAGGAUUGAGCAUCA
B5: chr2:216981417:216981418:+_ENSG00000079246_ENST00000392132|hu_hu|hu_hu_hu_mus_True|88_88 (ssRNA)
RNA: GGGAGUUCUACAGUCCGACGAUCCUGAUACUGGUCCUUGCCAGCAAGGGGAUUGUCAGUGCCAUCUGUGCCAUAGAGGACUAACGCAAUCUCAUCUUUGCUCUCCGAAAAUACCUGUCGUUGGACAAACAUAGUCAUCACUUUCAACAGAGGAUUGAGCAUCA
B6: chr8:100899844:100899845:-_ENSG00000164919_ENST00000517682|hu_mus|FALSE|FALSE (ssRNA)
RNA: GGGAGUUCUACAGUCCGACGAUCUGGCUCAGCCACGCCAAACUUAUAGGCAGCGGCAACUCCCAGGGCCACAAUGAAUGCGCCAGCAAUAUGAACCCGCAGACGCUUGGCCAGAAGACCACGCAUCUGUGGUUUGGGCAACAGCAACAGAGGAUUGAGCAUCA
B7: chr6:136509389:136509390:+_ENSMUSG00000030213_ENSMUST00000032335|mus_mus|FALSE|FALSE (ssRNA)
RNA: GGGAGUUCUACAGUCCGACGAUCGACAUUACUGUUCACUUUAUUUCCCUCAUCACAGGAGUCUUUACUUUGAAUUUGGUCUAAGUGUUCGUCGUCUUCACUCUUGCCUGGACAAUCAUCACUGUUAUUGCUACUCGGCUCUGUCAACAGAGGAUUGAGCAUCA
B8: chr3:150289932:150289933:+_ENSG00000144895_ENST00000460851|hu_hu|hu_hu_hu_mus_False|8_28 (ssRNA)
RNA: GGGAGUUCUACAGUCCGACGAUCCUUGUAGUUUUUAACAUCCCAUACUUCCAUUUGUCCUCGAAGAUUUCCAAAUCCAGCCAGCACUAAUAUAUGUCCAUGAGGGCUAUAGUAGGCUGCGUUGCGAGGACCAGUUCCAAAGUCCAACAGAGGAUUGAGCAUCA
B9: chr3:176767854:176767855:-_ENSG00000177565_ENST00000430069|hu_hu|hu_hu_hu_mus_False|18_38 (ssRNA)
RNA: GGGAGUUCUACAGUCCGACGAUCGACAUCCUUGUUACUGGGCACGUCCUGCCCUCCUUCCCGUAUGCAGUGUCUAAGCACGAGCUGCGUAGGGCCACUGGUGCUGUUCUCACUGAGAUUCCAUAUUCUUGCCGUGGAGUCUCCCAACAGAGGAUUGAGCAUCA
B10: chrX:101152592:101152593:-_ENSMUSG00000056537_ENSMUST00000070705|mus_hu|FALSE|FALSE (ssRNA)
RNA: GGGAGUUCUACAGUCCGACGAUCUAAAUCUGCAGUAUGACAUCUUACAUAGGGAAAAAAGCUUCUUCCUAAAAGAUAACUAUUAAUAAUCAAACCAGCUUUAAUAUGAUUGACCUUUCAAGGUCUUGUUUUGCUUUAAACAAGCAACAGAGGAUUGAGCAUCA
B11: chr1:202722107:202722108:-_ENSG00000117139_ENST00000367264|hu_mus|FALSE|FALSE (ssRNA)
RNA: GGGAGUUCUACAGUCCGACGAUCCAUGAUGGUCACCAGCUGGUGGAGCAGGUCCGGCUGGGACACAAAGAGCUCAGGAGCGAGCUUCUUCAUCACGUUUUCUAGCUGCUCAGCAGCGUAGCCUGGAACUCCAUACCAGGUUUUCAACAGAGGAUUGAGCAUCA
B12: 226565000_226566958_1833_CDS_ENSG00000143799_ENST00000366794|human|control|control (ssRNA)
RNA: GGGAGUUCUACAGUCCGACGAUCAUACCUGUUUUCCUUGUCGUCCUCCAGAAGCUGCAGCUUGUAGUAGGAGUUGGUUCCUUUAACGAUGUCCACCAGGCCAAGGGUGGCACUGAAGACCUUCCCACCUUUCUCCAGGACAUGCAACAGAGGAUUGAGCAUCA
B13: chr4:135514694:135514695:+_ENSMUSG00000028672_ENSMUST00000030432|mus_mus|FALSE|FALSE (ssRNA)
RNA: GGGAGUUCUACAGUCCGACGAUCGUCCCCAAGGGAGAUCUCAUAGCAGCCCAUCGAGUACAACUUCUUGGCAACCUCAGCAACUUUAGCCGGGGAGACCUUCCCCUCGUAGGGGCAUCCGAGGGCACAGGAGACAUACCCUCUCAACAGAGGAUUGAGCAUCA
B14: 156762238_156762358_2499_CDS_ENSG00000146909_ENST00000275820|human|control|control (ssRNA)
RNA: GGGAGUUCUACAGUCCGACGAUCUGCAAGGUCAGCUUUCUCUCUCAGCACGUUGGCUUCGUCGGCGCUUCUGUGGGCCUGUGCGUUCUUUAGCAAGAAGUGGCUGAUGAAAAGCUUCAAACCCUCACGUAACACCCCCAGCUUCAACAGAGGAUUGAGCAUCA
B15: 27785926_27800972_2401_CDS_ENSMUSG00000022263_ENSMUST00000090247|mouse|control|control (ssRNA)
RNA: GGGAGUUCUACAGUCCGACGAUCCACCGACUCGGCGUACACGUCGUCCAGCAGUUCCUUCUGUAACUCCUCCAGCCAUGUCCAGAGCUCUUUUACGUGCGUGUGAAAUGACACAGACAUGUCCAGCAGGAUCUUUCGUUGUUCCAACAGAGGAUUGAGCAUCA
B16: chrX:70927055:70927056:+_ENSMUSG00000019558_ENSMUST00000114465|mus_hu|motif|central (ssRNA)
RNA: GGGAGUUCUACAGUCCGACGAUCCCUUUGCCCAGAGGCGCCAUUUACAUCUGGCAUUCACCUUUGCUAAGAGAUAGAGAUCGGUAUAUACUCUCCGUACUCACGCACGCGUGCACUCGCACCCAAGCUCACACAAUUGAUACUCAACAGAGGAUUGAGCAUCA
B17: 98576476_98579460_8777_CDS_ENSG00000196367_ENST00000355540|human|control|control (ssRNA)
RNA: GGGAGUUCUACAGUCCGACGAUCGCAGAUGGCCAGGUAUCCGCGGUACAUGUUCACCUUCCAGGCCAUCUCCUUCGGACAGCUCACUUCCACCUGCACCAGCGCCUCCUUCAUGGCAGUCCAGUUGGACACCCGCCAGGCGCACAACAGAGGAUUGAGCAUCA
B18: chr2:180453240:180453241:+_ENSMUSG00000027573_ENSMUST00000029090|mus_mus|FALSE|FALSE (ssRNA)
RNA: GGGAGUUCUACAGUCCGACGAUCCUCACCUCUCUCACACACAUCCCCUCCCAAAAGCCACACAGCCCACACCAAGACAAAAAACCGAUCCAAACUCAAUACCCACACAAAAGUUAUCUUUGAAUUAAGAUUUACAAAUUUAUACAACAGAGGAUUGAGCAUCA
B19: chr17:45747064:45747065:+_ENSG00000108424_ENST00000290158|hu_mus|motif|central (ssRNA)
RNA: GGGAGUUCUACAGUCCGACGAUCGCCCACAGUCCACGCUGUUGUGUCUCGAACAACUACACUGGGGUCUUUCAUUAGUUCGGUUAGGGUGGGCAUAGCCUGUAUGACUAAUGGUUUCAGUUGAUUAGGCUCUGGUCCUUCCAACAACAGAGGAUUGAGCAUCA
B20: chr4:95690885:95690886:+_ENSMUSG00000028572_ENSMUST00000156910|mus_mus|mus_mus_mus_hu_False|18_38 (ssRNA)
RNA: GGGAGUUCUACAGUCCGACGAUCUUUAGAAAAUGUUAAAUACCAUGCUAAAAUAUUUUCAAAGGCUUAUUUUAUUUUACCAGAAGUCACAGGCAAGCAGACACCAUAAGAAUAUAUAAAUACAAACCUCAACAAUAUAACUGUCAACAGAGGAUUGAGCAUCA
B21: chr17:85413340:85413341:+_ENSMUSG00000061130_ENSMUST00000080217|mus_mus|motif|central (ssRNA)
RNA: GGGAGUUCUACAGUCCGACGAUCAGUCAAUCUUAAACUAUCAUAAAGGUGUAUGCAAAGGCCUUUAAAAAAACCAAGACGGUAGGAAUAUAAGAAAACUAGUUUUUCAAGAUUCAAAUAACAAAAUGGUUAUAUAAAAGCACACAACAGAGGAUUGAGCAUCA
B22: chr6:122779733:122779734:-_ENSG00000111897_ENST00000339697|hu_mus|FALSE|FALSE (ssRNA)
RNA: GGGAGUUCUACAGUCCGACGAUCUAACAUUACACAAGCUACACAUACUCCGACGAGCAAGAAAAGUGCGUAGAUCAAUCUAGUCACAGUGGAGUUGUUCCCACUGGGGCAGCAUCGGCACAGCAAACACGGGGCACUGCCACACAACAGAGGAUUGAGCAUCA

In the experiment the target is T1, UNK ZnF1-3 (human, UniProt Q9C0B0 31-174).
T1 sequence: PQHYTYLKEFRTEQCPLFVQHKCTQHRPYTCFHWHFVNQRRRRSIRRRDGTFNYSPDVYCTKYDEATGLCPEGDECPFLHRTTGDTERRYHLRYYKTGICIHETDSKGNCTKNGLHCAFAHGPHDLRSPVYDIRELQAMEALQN
Description: nsRBNS (natural sequence RNA bind-n-seq); RBNS binding buffer (assumed for nsRBNS): 25 mM Tris pH 7.5, 150 mM KCl, 3 mM MgCl2, 0.01% Triton X-100, 500 ug/ml BSA, 20 U/ml SUPERase-In, 4 C; UNK is unkempt and MSI1 is Musashi-1; names of the RNAs are library labels; protein concentration not given here; high values mean tight binding.
On to B1, for which the binding signal amounted to 0.706 enrichment R.
The molecule B2 gave a binding signal of 0.934 enrichment R.
The same measure for B3: 0.941 enrichment R; for B4: 0.593 enrichment R; for B5: 1.15 enrichment R.
On to B6, for which the binding signal worked out at 0.899 enrichment R.
As for B7, the binding signal is 0.352 enrichment R.
As for B8, the binding signal stood at 0.68 enrichment R.
The same measure for B9: 0.475 enrichment R; for B10: 0.781 enrichment R; for B11: 0.549 enrichment R.
Then B12, with 0.744 enrichment R; and B13, with 0.793 enrichment R; and B14, with 0.781 enrichment R.
On to B15, for which the binding signal worked out at 0.649 enrichment R.
In turn, B16 registered a binding signal of 0.827 enrichment R.
B17 registered a binding signal of 0.87 enrichment R.
The same measure for B18: 2.39 enrichment R; for B19: 0.528 enrichment R.
B20 registered a binding signal of 2.29 enrichment R.
On to B21, for which the binding signal was 1.28 enrichment R.
Then B22, with 1.21 enrichment R.

The values above are taken from article PMC12136788.
